Data from PubChem BioAssay AID1508624 (National Center for Advancing Translational Sciences (NCATS), 2021).
About 120 (0.25%) of roughly 48,000 compounds were called active. Roughly 4% stayed inconclusive and do not appear here. Calls follow the shape of the dose curve; as a rule, active = well fitted activation curve with a large enough effect; inconclusive = small, poorly fitted or top-dose-only effect, or another doubt; inactive = no such curve, though single readings can be large or run the other way. The list shows a part of the results.

Assay: Primary qHTS for Identification of Small Molecule Activators of Huntingtin-Antisense Promoter Activity; also: nearly all actives have a fitted effect of over 55% in size
Conditions: HEK293 HTT-AS promoter firefly luciferase reporter, 24 h; series mostly up to 57.5 µM; activity change, positive = activation: at the top concentration
Summary of the method: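 HEK293 cells carrying firefly luciferase reporters were seeded at 2,500 per well in Opti-MEM and cultured for 24 h. They were then treated with compounds at up to 57.5 uM final for 24 h at 37 degrees C before Dual-Glo luminescence readout.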

| SMILES | activity change, positive = activation |
| --- | --- |
| CN1CCN(C2(CNC(=O)COc3ccc(C(C)(C)C)cc3)CCCCC2)CC1 | inactive: -23.1% |
| O=C(Cn1c(=O)n(-c2ccc(F)c(Cl)c2)c(=O)c2sc3ccccc3c21)NC1CCCCC1 | inactive: 0.53% |
| CC(C)c1ccc(CNCCSc2nnnn2-c2ccccc2)cc1 | inactive: 5.88% |
| CCNC(=O)C1CCCN(c2nn3cc(-c4ccc(C)cc4)nc3s2)C1 (stereo not given) | inactive: -69.4% |
| CCC(C)S(=O)(=O)c1oc(-c2ccc(F)cc2)nc1S(=O)(=O)c1ccc(F)cc1 (stereo not given) | inactive: -94.5% |
| CCc1ccc(NC(=O)Cn2c(=O)n(CCC(=O)NCCc3ccc(OC)c(OC)c3)c(=O)c3ccccc32)cc1 | inactive: -14.7% |
| Cc1cc(C)cc(NC(=O)C2CCN(c3nc4ccccc4nc3C(F)(F)F)CC2)c1 | inactive: -1.71% |
| CCOc1ccc(-n2nc3ccc(NC(=O)COc4ccccc4)cc3n2)cc1 | inactive: -42.5% |
| CN(C)C(=O)C(CCN1CCC(O)(c2ccc(Cl)cc2)CC1)(c1ccccc1)c1ccccc1 | inactive |
| CC(=O)c1ccc(S(=O)(=O)N2CCn3cccc3C2c2ccc(F)c(F)c2)cc1 (stereo not given) | inactive: -39.7% |
| CCc1cc(C(=O)NCc2ccc(F)cc2)no1 | inactive: 3.28% [at 11.5 µM, percent change from vehicle, -100% = no light] |
| CN[C@H]1[C@@H](O)[C@@H]2O[C@@H]3O[C@H](C)CC(=O)[C@]3(O)O[C@@H]2[C@@H](NC)[C@H]1O | inactive: -93.5% |
| COc1ccc(CNc2ncnc3c2c(-c2ccccc2)cn3-c2cccc(C)c2)cc1 | inactive: -28.8% |
| CC(C)Oc1ccc(CNC(=O)c2ccc3c(c2)N(C)C(=O)C2CCCCN32)cc1 (stereo not given) | inactive: -16.4% |
| Cc1ccc(N2CC(NC(=O)C3CCCC3)CC2=O)cc1C (stereo not given) | inactive: -11.3% |
| O=C(COc1ccccc1Cl)Nc1nc(-c2ccc(F)cc2)ns1 | inactive: -18.4% |
| COc1cccc(NC(=O)C2CCN(S(=O)(=O)c3c(C)noc3/C=C/c3cccs3)CC2)c1 | inactive: -37.2% |
| CCN1CCN(c2cc(C)c3cc(NC(=O)/C=C/c4ccc(OCCC(C)C)cc4)ccc3n2)CC1 | inactive: -12% |
| Cc1ccc(NC(=O)CSc2nc(C3CCCC3)nc3c2c(=O)n(C)c(=O)n3C)c(C)c1 | inactive: -5.1% |
| CCc1nnc(SCc2nc(-c3cccc(C)c3)oc2C)c2cc3sc(C)cc3n12 | inactive: -0.0786% |
| O=C(CSc1nccn1-c1ccc(F)cc1)Nc1cccc2ccccc12 | inactive: -9.33% |
| COc1ccc(C(=O)Nc2cc(NC(=O)c3ccco3)ccc2OC)cc1Cl | inactive: -2.7% |
| CCOc1ccc(NCc2cccn2-c2nnc(N3CCC(C(=O)NCCOC)CC3)s2)cc1 | inactive: -18.2% |
| C=C(C)Cn1c(=O)c2c(nc3n2CCN3c2ccc(F)cc2)n(C)c1=O | inactive: -8.15% |
| Cc1cc(=O)n2nc(N3CCC(C(=O)NCc4ccc(F)cc4)CC3)sc2n1 | inactive: -13.6% |
